Experimental data taken from PubChem BioAssay (NCI).
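Five compound concentrations were applied to cells in 96-well plates for 48 hours; endpoints were derived by simple linear interpolation of the resulting dose-response curve. GI50 marks 50% less growth. The concentration for full growth arrest is given as TGI.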

Tested on: NCI-H322M lung
Test: NCI anticancer screen, dose series, 48 h

| SMILES | TGI | GI50 |
| --- | --- | --- |
| CC(=O)C1=C(C)N2C(=NC3=C(CCc4ccccc43)C2c2cccc(Br)c2)S1 (stereo not given) | > 100 µM |  |
| COc1ccc2nc3cc([N+](=O)[O-])ccc3c(Nc3ccc(S(=O)(=O)N=C(N)N)cc3)c2c1 | > 100 µM |  |
| CCOC(=O)N1CCN(c2nc(C)n(-c3ccccc3)c(=S)c2C#N)CC1 | > 100 µM |  |
| CC1=CC(=O)[C@@H](O)[C@]2(C)[C@H]3[C@@]4(O)OC[C@@]35[C@@H](C[C@@H]12)OC(=O)C(OC(=O)CC1=CCCC1)[C@H]5[C@@H](C)[C@H]4O (stereo not given in full) | 7.83 µM |  |
| Nc1ncnc2c1ncn2C1C=CC(COS(N)(=O)=O)C1 (stereo not given) | > 100 µM |  |
| Cc1cc2cc3cc(C)c(N)cc3[n+](C)c2cc1N | 12.5 µM | 3.01 µM |
| CNC(=O)NC(CCCCNC(=O)OCc1ccccc1)C(=O)OCc1ccccc1 (stereo not given) | > 100 µM |  |
| COCCN(CCOC)C(=O)COc1c2cc(C(C)(C)C)cc1Cc1cc(C(C)(C)C)cc(c1OCC(=O)N(CCOC)CCOC)Cc1cc(C(C)(C)C)cc(c1OCC(=O)N(CCOC)CCOC)Cc1cc(C(C)(C)C)cc(c1OCC(=O)N(CCOC)CCOC)Cc1cc(C(C)(C)C)cc(c1OCC(=O)N(CCOC)CCOC)C2 | 12.4 µM |  |
| CCC(c1ccc2cc(O)ccc2c1)C(C)(C)C(=O)O (stereo not given) | > 100 µM |  |
| C=C(Br)C(C)(Br)CCC(Br)C(C)(C)Br (stereo not given) | > 100 µM |  |
| O=c1c2cc(-c3ccccc3)cnc2sn1-c1ccc(Oc2ccccc2)cc1 | > 100 µM |  |
| NC1=CC(=O)c2nc3ccccc3c3ccnc1c23 | 24 µM | 0.673 µM |
| COc1ccc(CCN2CCC(Nc3nc4ccccc4n3Cc3ccc(F)cc3)CC2)cc1 | 4.01 µM | 1.9 µM |
| Cc1ccc(-c2nc(N)c(C#N)c3c2CCOc2c-3ccc3ccccc23)cc1 | 30.4 µM | 0.812 µM |
| CSC1=Nc2c(c(C)c(C)n2COC(CO)CO)C2=NC(=O)CC(C)N12 (stereo not given) | > 100 µM | > 100 µM |
| OCC1OC(n2cnc3c2NC=NC[C@H]3O)CC1O (stereo not given in full) | > 500 µM |  |
| COc1cc(-n2cnc(-c3ccc(Cl)cc3)c2)cc(OC)c1OC | > 100 µM | 72 µM |
| COC(=O)C1=C(CS(=O)c2ccc([N+](=O)[O-])cc2[N+](=O)[O-])ON(C)C1c1ccccc1 (stereo not given) | > 100 µM |  |
| C/C=C1\CNC1C(=O)O (stereo not given) | > 100 µM |  |
| COc1ccc(-c2nc(N3CCOCC3)c3sc(CN(C)c4ncc(C(=O)NO)cn4)cc3n2)cn1 | 0.146 µM | < 0.01 µM |
| CCN(CC)CCCC(Cc1ccccc1)Nc1c2ccc(Cl)cc2nc2ccc(OC)cc12 (stereo not given) | 5.77 µM | 2.01 µM |

| SMILES | TGI | GI50 |
| --- | --- | --- |
| Cc1nc2c(O)cc3c4c(n(Cc5ccccc5)c3c2nc1C)C(=O)CCC4 | > 100 µM |  |
| Cc1cc(C)c2nc3nc(C)cc(C)c3c(N)c2c1 | 24.9 µM | 3.66 µM |
| C=Cc1cc(OC)c2c(c1)c(=O)oc1c2cc(OC)c2c(O)ccc(C3OC(C)C(O)C(C)(O)C3O)c21 (stereo not given) |  | 0.001 µM |
| NCCCCN(CCCN)Cc1ccc2ccccc2c1 | > 100 µM |  |
| CC(C)(C)C1(O)C=C(O)C(=O)N1NC(=O)c1ccccc1Nc1ccccc1 (stereo not given) | > 100 µM |  |
| CN(C)C1(N(C)C)Oc2c(c(=O)n(C)c(=O)n2C)C(c2ccccc2Br)C1(F)F (stereo not given) | > 100 µM |  |
| CNS(=O)(=O)c1ccc2[nH]c(O)c(C3=Nc4ccccc4C3=O)c2c1 | > 100 µM |  |
| OCC1OC2OC3C(CO)OC(OC4C(CO)OC(OC5C(CO)OC(OC6C(CO)OC(OC7C(CO)OC(OC1C(O)C2O)C(O)C7O)C(O)C6O)C(O)C5O)C(O)C4O)C(O)C3O (stereo not given) (tested in a mixture with another compound) | > 100 µM |  |
| CC(=O)NC1C(OC2C(CO)OC(OCC3OC(n4ccc(N)nc4=O)C(O)C3O)C(NC(C)=O)C2O)OC(CO)C(O)C1O (stereo not given) | > 100 µM |  |
| O=[N+]([O-])c1ccc(N/N=C(\c2ccccc2)c2ccccn2)nc1 | 27.3 µM |  |
| CCC1c2[nH]c3ccccc3c2C[C@H]2C(=O)N3CCC[C@H]3C(=O)N12 (stereo not given in full) | > 100 µM |  |
| C=C1CC2CC(=O)C(O)C(C1)C2 (stereo not given) | > 100 µM |  |
| COc1ccc(OC)c(/C=C2\COc3ccc(O)c(O)c3C2=O)c1 | 12.8 µM | 3.25 µM |
| CCCCCCCCCCCCCCCCCC(=O)OCC(C[As](=O)(O)O)OC(=O)CCCCCCCCCCCCCCCCC (stereo not given) | > 100 µM |  |
| C[C@]12CC[C@H]3[C@@H](CCC4=CC(=O)CC[C@@]43C)[C@@H]1CC[C@@H]2C(=O)Nc1ccc([N+](=O)[O-])c(C(F)(F)F)c1 | 38.2 µM |  |
| O=C(NCCNc1nccc(-c2c(-c3cccc(O)c3)nc3sccn23)n1)Nc1cccc(C(F)(F)F)c1 | 26 µM | 6.13 µM |
| O=C1CC[C@H](c2ccc(O)c3c2C(=O)[C@@H]2O[C@@H]2C3=O)c2cccc(O)c21 | 29.1 µM | 13.6 µM |
| N#Cc1c(N)nc(NCc2ccccc2)c(C#N)c1-c1ccccc1Cl | > 100 µM | 40.6 µM |
| O=C1C(c2c(O)[nH]c3ccccc23)=Nc2ccc(Br)cc21 | > 100 µM |  |
| c1ccc(CN2CCCCC(Sc3ccccc3)CC2)cc1 (stereo not given) | > 100 µM |  |
| c1ccc2sc(C3(N4CCC5(CC4)OCCO5)CCCCC3)cc2c1 | > 100 µM |  |
